{"sequences": {"note": "Amino acid sequences for entries named in this document (tags omitted). A change or cut given only in a name is not applied to a line headed by its entry. Chains listed by the source or under a name are the forms on record and can include a tag or linker. Residues count along the entry.", "UniProt Q9EPN1": "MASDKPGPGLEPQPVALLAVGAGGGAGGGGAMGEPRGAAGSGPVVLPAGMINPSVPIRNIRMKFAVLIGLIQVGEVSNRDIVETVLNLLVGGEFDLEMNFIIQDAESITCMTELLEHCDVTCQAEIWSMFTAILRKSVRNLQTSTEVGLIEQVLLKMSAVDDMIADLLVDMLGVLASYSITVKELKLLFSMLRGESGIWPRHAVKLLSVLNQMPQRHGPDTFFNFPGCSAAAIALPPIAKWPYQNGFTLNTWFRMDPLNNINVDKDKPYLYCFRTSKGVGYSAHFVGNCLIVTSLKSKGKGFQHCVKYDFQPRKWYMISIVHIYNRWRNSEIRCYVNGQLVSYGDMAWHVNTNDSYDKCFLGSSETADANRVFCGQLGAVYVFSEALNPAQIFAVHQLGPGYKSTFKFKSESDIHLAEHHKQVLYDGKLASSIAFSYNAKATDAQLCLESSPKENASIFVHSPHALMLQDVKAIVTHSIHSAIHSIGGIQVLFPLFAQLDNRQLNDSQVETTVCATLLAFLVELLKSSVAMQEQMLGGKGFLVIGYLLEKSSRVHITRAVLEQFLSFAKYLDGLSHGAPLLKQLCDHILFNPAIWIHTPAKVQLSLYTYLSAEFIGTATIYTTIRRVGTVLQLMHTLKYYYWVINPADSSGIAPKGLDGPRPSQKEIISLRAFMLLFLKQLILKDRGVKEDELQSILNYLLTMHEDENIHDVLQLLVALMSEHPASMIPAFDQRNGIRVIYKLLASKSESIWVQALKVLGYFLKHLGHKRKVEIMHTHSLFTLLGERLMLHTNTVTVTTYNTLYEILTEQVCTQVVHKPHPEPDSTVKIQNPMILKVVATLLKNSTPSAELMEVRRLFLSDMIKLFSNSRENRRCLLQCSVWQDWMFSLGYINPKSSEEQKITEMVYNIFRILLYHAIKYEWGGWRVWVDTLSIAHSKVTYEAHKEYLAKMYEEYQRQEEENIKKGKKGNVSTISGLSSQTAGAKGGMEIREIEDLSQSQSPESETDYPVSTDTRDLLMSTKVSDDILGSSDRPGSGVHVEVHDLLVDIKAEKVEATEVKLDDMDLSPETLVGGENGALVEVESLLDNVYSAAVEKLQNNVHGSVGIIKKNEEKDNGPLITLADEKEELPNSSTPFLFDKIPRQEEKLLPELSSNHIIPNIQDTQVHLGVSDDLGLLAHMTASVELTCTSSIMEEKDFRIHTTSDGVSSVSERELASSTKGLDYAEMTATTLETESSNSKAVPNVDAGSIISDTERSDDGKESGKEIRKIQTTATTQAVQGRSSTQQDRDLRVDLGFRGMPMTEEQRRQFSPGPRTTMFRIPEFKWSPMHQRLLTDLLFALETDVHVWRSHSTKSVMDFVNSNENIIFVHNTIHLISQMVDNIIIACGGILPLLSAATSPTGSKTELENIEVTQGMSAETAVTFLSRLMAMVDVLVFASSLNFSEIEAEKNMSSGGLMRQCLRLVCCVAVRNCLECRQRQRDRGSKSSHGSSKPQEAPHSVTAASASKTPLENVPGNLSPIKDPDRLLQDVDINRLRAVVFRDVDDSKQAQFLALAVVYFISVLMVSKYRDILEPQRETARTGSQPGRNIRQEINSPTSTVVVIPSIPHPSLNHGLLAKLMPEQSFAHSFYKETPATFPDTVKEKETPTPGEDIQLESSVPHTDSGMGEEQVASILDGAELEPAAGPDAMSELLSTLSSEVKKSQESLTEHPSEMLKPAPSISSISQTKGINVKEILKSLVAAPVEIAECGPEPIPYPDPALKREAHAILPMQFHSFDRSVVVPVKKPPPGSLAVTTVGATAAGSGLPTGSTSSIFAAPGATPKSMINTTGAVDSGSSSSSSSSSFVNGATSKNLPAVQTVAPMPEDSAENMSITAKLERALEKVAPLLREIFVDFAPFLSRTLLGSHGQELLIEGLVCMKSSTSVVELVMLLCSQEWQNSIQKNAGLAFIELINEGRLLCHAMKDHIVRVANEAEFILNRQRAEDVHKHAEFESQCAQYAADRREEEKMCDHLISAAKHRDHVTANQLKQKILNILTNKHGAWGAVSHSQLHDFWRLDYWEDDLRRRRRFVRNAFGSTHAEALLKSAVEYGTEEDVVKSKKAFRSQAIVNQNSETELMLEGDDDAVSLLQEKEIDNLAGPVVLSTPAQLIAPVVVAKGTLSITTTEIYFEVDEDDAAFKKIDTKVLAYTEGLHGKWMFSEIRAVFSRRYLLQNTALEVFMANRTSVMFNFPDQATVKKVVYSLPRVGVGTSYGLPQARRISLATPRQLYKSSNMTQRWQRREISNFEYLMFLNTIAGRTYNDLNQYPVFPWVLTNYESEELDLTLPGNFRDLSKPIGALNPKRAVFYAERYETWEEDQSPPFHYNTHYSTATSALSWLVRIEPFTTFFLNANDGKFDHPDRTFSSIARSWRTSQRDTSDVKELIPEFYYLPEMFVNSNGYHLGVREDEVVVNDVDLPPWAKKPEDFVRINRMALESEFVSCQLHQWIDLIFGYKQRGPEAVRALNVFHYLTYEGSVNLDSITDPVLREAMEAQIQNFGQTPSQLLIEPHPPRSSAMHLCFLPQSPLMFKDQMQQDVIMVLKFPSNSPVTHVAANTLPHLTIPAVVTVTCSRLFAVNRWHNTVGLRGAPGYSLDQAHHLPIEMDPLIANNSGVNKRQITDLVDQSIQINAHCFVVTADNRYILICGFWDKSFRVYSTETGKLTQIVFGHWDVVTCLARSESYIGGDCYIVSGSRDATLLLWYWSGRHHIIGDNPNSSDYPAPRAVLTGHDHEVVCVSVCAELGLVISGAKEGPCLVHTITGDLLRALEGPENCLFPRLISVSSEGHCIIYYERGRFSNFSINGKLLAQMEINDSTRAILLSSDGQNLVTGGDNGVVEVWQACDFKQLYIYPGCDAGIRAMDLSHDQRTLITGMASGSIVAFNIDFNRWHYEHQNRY", "GFP-Duf, PH, BEACH, WD40": "residues 1956-2936 of Q9EPN1", "GFP-BEACH": "residues 2264-2553 of Q9EPN1", "C-terminal part of Nbea (Duf, PH, BEACH, WD40) fused to GFP, N2302A (Q9EPN1-1, form named)": "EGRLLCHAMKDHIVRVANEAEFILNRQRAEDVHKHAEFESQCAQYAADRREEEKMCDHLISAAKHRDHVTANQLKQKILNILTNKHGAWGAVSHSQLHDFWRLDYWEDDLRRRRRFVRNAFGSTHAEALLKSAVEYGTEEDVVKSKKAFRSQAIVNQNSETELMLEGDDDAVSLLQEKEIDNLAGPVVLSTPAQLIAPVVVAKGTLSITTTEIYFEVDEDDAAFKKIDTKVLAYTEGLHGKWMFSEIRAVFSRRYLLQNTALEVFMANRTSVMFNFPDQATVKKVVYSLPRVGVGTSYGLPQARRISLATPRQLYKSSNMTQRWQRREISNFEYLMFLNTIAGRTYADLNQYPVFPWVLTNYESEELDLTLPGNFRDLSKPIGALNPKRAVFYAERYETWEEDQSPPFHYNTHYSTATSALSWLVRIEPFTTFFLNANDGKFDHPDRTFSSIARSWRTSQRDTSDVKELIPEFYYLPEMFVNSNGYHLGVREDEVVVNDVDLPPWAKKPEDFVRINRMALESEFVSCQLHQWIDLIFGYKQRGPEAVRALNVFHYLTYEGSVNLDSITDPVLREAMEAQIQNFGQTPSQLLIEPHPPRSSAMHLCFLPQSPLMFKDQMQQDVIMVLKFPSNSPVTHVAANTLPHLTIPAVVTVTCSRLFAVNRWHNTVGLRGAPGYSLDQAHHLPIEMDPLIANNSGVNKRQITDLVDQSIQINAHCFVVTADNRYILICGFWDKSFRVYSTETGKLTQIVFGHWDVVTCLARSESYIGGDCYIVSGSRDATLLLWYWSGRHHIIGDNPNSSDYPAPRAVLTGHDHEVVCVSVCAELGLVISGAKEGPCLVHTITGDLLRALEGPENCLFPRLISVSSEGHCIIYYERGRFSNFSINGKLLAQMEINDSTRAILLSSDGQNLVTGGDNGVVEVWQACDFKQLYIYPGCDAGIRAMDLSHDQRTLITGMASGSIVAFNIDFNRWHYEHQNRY", "C-terminal part of Nbea (Duf, PH, BEACH, WD40) fused to GFP, P2499S (Q9EPN1-1, form named)": "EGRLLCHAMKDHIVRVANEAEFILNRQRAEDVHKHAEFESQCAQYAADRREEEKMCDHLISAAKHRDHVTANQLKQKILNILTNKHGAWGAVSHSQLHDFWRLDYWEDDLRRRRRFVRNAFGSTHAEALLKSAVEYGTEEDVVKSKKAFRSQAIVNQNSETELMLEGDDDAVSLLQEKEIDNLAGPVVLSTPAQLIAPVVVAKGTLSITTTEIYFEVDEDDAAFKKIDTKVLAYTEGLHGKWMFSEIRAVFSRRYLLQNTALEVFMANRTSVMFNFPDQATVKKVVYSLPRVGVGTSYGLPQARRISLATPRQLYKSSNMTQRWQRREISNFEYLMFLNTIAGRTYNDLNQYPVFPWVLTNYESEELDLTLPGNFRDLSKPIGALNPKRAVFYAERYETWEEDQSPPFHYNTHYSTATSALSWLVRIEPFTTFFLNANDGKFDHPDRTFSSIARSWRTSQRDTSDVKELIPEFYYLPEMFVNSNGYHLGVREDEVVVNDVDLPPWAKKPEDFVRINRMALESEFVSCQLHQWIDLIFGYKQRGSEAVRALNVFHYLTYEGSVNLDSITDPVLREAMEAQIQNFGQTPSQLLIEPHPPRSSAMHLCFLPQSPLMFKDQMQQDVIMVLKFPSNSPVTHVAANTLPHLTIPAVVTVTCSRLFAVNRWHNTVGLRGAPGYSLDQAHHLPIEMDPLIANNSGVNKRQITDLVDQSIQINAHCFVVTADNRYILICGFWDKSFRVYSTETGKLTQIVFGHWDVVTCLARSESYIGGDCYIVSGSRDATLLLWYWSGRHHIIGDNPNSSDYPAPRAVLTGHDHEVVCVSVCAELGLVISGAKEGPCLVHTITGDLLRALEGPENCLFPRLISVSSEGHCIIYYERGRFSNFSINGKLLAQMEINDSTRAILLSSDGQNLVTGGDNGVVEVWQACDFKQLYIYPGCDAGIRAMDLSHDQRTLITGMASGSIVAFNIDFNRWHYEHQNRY", "C-terminal part of Nbea (Duf, PH, BEACH, WD40) fused to GFP, V2346Q (Q9EPN1-1, form named)": "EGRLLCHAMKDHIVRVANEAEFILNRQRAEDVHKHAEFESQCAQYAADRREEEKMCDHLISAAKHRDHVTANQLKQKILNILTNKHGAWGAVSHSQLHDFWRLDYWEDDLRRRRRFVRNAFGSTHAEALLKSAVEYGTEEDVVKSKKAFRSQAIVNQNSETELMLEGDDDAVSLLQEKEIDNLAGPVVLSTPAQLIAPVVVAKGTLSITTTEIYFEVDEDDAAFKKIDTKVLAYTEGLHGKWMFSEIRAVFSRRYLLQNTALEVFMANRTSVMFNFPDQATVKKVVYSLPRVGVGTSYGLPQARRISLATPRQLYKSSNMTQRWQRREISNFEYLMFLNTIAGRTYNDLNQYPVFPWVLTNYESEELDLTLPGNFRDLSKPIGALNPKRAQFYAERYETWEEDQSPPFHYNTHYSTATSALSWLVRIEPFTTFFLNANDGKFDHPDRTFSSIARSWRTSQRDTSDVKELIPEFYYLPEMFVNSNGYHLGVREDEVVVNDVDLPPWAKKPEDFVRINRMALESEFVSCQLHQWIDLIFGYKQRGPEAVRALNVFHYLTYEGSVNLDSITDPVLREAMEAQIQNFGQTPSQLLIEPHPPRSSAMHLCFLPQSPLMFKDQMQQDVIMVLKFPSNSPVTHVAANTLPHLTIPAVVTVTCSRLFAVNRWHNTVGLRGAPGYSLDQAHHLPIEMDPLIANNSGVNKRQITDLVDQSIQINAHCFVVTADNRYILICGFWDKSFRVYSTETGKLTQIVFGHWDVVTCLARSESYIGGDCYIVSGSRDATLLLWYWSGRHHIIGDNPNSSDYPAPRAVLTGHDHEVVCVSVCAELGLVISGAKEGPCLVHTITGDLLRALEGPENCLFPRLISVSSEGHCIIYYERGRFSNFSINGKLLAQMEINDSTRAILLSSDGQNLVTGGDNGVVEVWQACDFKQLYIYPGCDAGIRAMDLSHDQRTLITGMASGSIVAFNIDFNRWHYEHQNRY"}, "source": "paper PMC3380004", "key": {"[1]": {"molecular_target": "T1, Discs large homolog 3, Synapse-associated protein 102 (mouse (endogenous in mouse brain)) (UniProt P70175)", "T1 sequence": "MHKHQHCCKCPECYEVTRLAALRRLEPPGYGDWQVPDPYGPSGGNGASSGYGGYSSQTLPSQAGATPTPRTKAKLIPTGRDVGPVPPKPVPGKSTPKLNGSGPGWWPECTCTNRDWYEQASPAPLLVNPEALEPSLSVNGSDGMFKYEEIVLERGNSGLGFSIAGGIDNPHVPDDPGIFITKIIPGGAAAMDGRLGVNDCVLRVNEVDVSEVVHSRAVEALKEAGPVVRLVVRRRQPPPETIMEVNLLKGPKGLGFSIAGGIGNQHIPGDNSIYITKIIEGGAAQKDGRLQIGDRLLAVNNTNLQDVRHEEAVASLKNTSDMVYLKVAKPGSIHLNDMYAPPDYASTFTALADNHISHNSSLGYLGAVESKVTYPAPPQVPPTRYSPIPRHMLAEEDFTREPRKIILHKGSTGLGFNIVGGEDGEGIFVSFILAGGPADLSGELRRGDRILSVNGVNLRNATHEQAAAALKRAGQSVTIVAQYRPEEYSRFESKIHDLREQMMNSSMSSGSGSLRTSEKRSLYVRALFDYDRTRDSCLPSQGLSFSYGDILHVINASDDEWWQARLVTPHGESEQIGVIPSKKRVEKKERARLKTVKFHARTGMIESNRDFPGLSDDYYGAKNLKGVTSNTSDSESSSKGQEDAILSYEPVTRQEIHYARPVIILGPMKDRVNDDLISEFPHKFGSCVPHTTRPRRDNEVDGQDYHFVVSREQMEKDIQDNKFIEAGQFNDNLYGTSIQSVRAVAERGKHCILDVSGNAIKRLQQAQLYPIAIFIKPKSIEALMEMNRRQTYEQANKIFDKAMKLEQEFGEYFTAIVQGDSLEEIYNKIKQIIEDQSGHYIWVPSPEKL", "assay": "co-IP; reverse IP with two α-SAP102 antibodies (NeuroMab N19/2; GenScript rabbit polyclonal) from the P2+M fraction of P84 WT mice; immunoblot with α-Nbea and α-SAP102; control empty beads"}, "[2]": {"molecular_target": "T2, FLAG-tagged SAP102 (mouse) (UniProt P70175)", "T2 sequence": "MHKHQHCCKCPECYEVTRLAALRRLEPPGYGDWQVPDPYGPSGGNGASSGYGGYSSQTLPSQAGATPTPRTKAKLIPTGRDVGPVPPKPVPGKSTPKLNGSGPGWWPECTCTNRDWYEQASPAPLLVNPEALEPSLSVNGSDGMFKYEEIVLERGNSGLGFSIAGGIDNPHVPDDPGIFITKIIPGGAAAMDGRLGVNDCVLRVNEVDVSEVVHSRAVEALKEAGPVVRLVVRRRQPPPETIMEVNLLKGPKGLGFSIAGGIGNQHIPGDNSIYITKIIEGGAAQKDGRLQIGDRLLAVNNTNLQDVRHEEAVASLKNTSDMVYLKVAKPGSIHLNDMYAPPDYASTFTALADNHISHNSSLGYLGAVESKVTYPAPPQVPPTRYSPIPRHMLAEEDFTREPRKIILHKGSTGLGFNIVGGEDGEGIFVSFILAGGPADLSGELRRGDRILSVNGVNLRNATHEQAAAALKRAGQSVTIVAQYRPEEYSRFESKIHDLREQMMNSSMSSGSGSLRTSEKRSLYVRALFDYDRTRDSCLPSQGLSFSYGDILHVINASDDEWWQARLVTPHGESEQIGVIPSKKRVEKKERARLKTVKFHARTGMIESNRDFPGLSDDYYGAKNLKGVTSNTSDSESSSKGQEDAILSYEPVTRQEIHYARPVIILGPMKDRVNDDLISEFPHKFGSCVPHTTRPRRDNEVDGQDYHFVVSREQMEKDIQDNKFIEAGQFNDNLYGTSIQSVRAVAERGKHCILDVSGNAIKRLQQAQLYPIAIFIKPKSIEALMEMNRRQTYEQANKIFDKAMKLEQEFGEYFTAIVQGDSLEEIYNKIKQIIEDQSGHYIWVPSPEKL", "assay": "co-IP; lysates of co-transfected HEK293T cells (50 mM Tris pH 7.5, 1% Triton X-100, 1.5 mM MgCl2, 5 mM EDTA, 100 mM NaCl); IP with α-GFP, α-FLAG or α-Nbea antibody on Protein A agarose, 2 h, 4°C; immunoblot"}, "[3]": {"molecular_target": "C-terminal part of Nbea (Duf, PH, BEACH, WD40) fused to GFP, N2302A (mouse) (UniProt Q9EPN1)", "assay": "co-IP; lysates of co-transfected HEK293T cells (50 mM Tris pH 7.5, 1% Triton X-100, 1.5 mM MgCl2, 5 mM EDTA, 100 mM NaCl); IP with α-GFP, α-FLAG or α-Nbea antibody on Protein A agarose, 2 h, 4°C; immunoblot"}, "[4]": {"molecular_target": "GFP-Duf, PH, BEACH, WD40 (mouse) (UniProt Q9EPN1)", "assay": "co-IP; lysates of co-transfected HEK293T cells (50 mM Tris pH 7.5, 1% Triton X-100, 1.5 mM MgCl2, 5 mM EDTA, 100 mM NaCl); IP with α-GFP, α-FLAG or α-Nbea antibody on Protein A agarose, 2 h, 4°C; immunoblot"}, "GFP-BEACH (mouse)": {"molecular_target": "GFP-BEACH (mouse) (UniProt Q9EPN1)", "assay": "co-IP; lysates of co-transfected HEK293T cells (50 mM Tris pH 7.5, 1% Triton X-100, 1.5 mM MgCl2, 5 mM EDTA, 100 mM NaCl); IP with α-GFP, α-FLAG or α-Nbea antibody on Protein A agarose, 2 h, 4°C; immunoblot"}, "[5]": {"molecular_target": "C-terminal part of Nbea (Duf, PH, BEACH, WD40) fused to GFP, P2499S (mouse) (UniProt Q9EPN1)", "assay": "co-IP; lysates of co-transfected HEK293T cells (50 mM Tris pH 7.5, 1% Triton X-100, 1.5 mM MgCl2, 5 mM EDTA, 100 mM NaCl); IP with α-GFP, α-FLAG or α-Nbea antibody on Protein A agarose, 2 h, 4°C; immunoblot"}, "[6]": {"molecular_target": "C-terminal part of Nbea (Duf, PH, BEACH, WD40) fused to GFP, V2346Q (mouse) (UniProt Q9EPN1)", "assay": "co-IP; lysates of co-transfected HEK293T cells (50 mM Tris pH 7.5, 1% Triton X-100, 1.5 mM MgCl2, 5 mM EDTA, 100 mM NaCl); IP with α-GFP, α-FLAG or α-Nbea antibody on Protein A agarose, 2 h, 4°C; immunoblot"}, "[7]": {"molecular_target": "C-terminal part of Nbea (Duf, PH, BEACH, WD40) fused to GFP, E2090K (mouse) (UniProt Q9EPN1)", "assay": "co-IP; lysates of co-transfected HEK293T cells (50 mM Tris pH 7.5, 1% Triton X-100, 1.5 mM MgCl2, 5 mM EDTA, 100 mM NaCl); IP with α-GFP, α-FLAG or α-Nbea antibody on Protein A agarose, 2 h, 4°C; immunoblot"}, "[8]": {"molecular_target": "full-length Nbea-YFP (mouse) (UniProt Q9EPN1)", "assay": "co-IP; lysates of co-transfected HEK293T cells (50 mM Tris pH 7.5, 1% Triton X-100, 1.5 mM MgCl2, 5 mM EDTA, 100 mM NaCl); IP with α-GFP, α-FLAG or α-Nbea antibody on Protein A agarose, 2 h, 4°C; immunoblot"}, "[9]": {"molecular_target": "C-terminal part of Nbea (Duf, PH, BEACH, WD40) fused to GFP, E2218R (mouse) (UniProt Q9EPN1)", "assay": "co-IP; lysates of co-transfected HEK293T cells (50 mM Tris pH 7.5, 1% Triton X-100, 1.5 mM MgCl2, 5 mM EDTA, 100 mM NaCl); IP with α-GFP, α-FLAG or α-Nbea antibody on Protein A agarose, 2 h, 4°C; immunoblot"}, "[10]": {"molecular_target": "C-terminal part of Nbea (Duf, PH, BEACH, WD40) fused to GFP, E2447R (mouse) (UniProt Q9EPN1)", "assay": "co-IP; lysates of co-transfected HEK293T cells (50 mM Tris pH 7.5, 1% Triton X-100, 1.5 mM MgCl2, 5 mM EDTA, 100 mM NaCl); IP with α-GFP, α-FLAG or α-Nbea antibody on Protein A agarose, 2 h, 4°C; immunoblot"}, "[11]": {"molecular_target": "C-terminal part of Nbea (Duf, PH, BEACH, WD40) fused to GFP, V2773I (mouse) (UniProt Q9EPN1)", "assay": "co-IP; lysates of co-transfected HEK293T cells (50 mM Tris pH 7.5, 1% Triton X-100, 1.5 mM MgCl2, 5 mM EDTA, 100 mM NaCl); IP with α-GFP, α-FLAG or α-Nbea antibody on Protein A agarose, 2 h, 4°C; immunoblot"}}, "note": "These are yes or no findings as the source states them, for the method shown. Binding seen in cells or lysates may run through a third protein. Some binding calls cover weakened binding; strength is not graded here. For part of these data: Sequences can lack the tags named with a protein.", "data": [{"molecule": "Neurobeachin (from UniProt Q9EPN1-1 1-2936)", "values": [{"measurement": "binding", "setting": "[1]", "value": "binds"}]}, {"molecule": "full-length Nbea-YFP (from UniProt Q9EPN1-1 1-2936)", "values": [{"measurement": "binding", "setting": "[2]", "value": "binds"}]}, {"molecule": "FLAG-tagged SAP102 (protein, UniProt P70175 1-849) MHKHQHCCKCPECYEVTRLAALRRLEPPGYGDWQVPDPYGPSGGNGASSGYGGYSSQTLPSQAGATPTPRTKAKLIPTGRDVGPVPPKPVPGKSTPKLNGSGPGWWPECTCTNRDWYEQASPAPLLVNPEALEPSLSVNGSDGMFKYEEIVLERGNSGLGFSIAGGIDNPHVPDDPGIFITKIIPGGAAAMDGRLGVNDCVLRVNEVDVSEVVHSRAVEALKEAGPVVRLVVRRRQPPPETIMEVNLLKGPKGLGFSIAGGIGNQHIPGDNSIYITKIIEGGAAQKDGRLQIGDRLLAVNNTNLQDVRHEEAVASLKNTSDMVYLKVAKPGSIHLNDMYAPPDYASTFTALADNHISHNSSLGYLGAVESKVTYPAPPQVPPTRYSPIPRHMLAEEDFTREPRKIILHKGSTGLGFNIVGGEDGEGIFVSFILAGGPADLSGELRRGDRILSVNGVNLRNATHEQAAAALKRAGQSVTIVAQYRPEEYSRFESKIHDLREQMMNSSMSSGSGSLRTSEKRSLYVRALFDYDRTRDSCLPSQGLSFSYGDILHVINASDDEWWQARLVTPHGESEQIGVIPSKKRVEKKERARLKTVKFHARTGMIESNRDFPGLSDDYYGAKNLKGVTSNTSDSESSSKGQEDAILSYEPVTRQEIHYARPVIILGPMKDRVNDDLISEFPHKFGSCVPHTTRPRRDNEVDGQDYHFVVSREQMEKDIQDNKFIEAGQFNDNLYGTSIQSVRAVAERGKHCILDVSGNAIKRLQQAQLYPIAIFIKPKSIEALMEMNRRQTYEQANKIFDKAMKLEQEFGEYFTAIVQGDSLEEIYNKIKQIIEDQSGHYIWVPSPEKL", "values": [{"measurement": "binding", "setting": "[3]", "value": "binds"}, {"measurement": "binding", "setting": "[4]", "value": "binds"}, {"measurement": "binding", "setting": "GFP-BEACH (mouse)", "value": "no binding"}, {"measurement": "binding", "setting": "[5]", "value": "binds"}, {"measurement": "binding", "setting": "[6]", "value": "binds"}, {"measurement": "binding", "setting": "[7]", "value": "binds"}, {"measurement": "binding", "setting": "[8]", "value": "binds"}, {"measurement": "binding", "setting": "[9]", "value": "no binding"}, {"measurement": "binding", "setting": "[10]", "value": "binds"}, {"measurement": "binding", "setting": "[11]", "value": "binds"}]}]}
